{"source": "patent US12109190B2", "about": "“Urolithins as immune response enhancers” (Amazentis SA, priority 2018, dated 2024)", "system": "flu strains H1N1, H3N2 and Type B", "assay": "Phase 2 clinical trial: antibody titres in response to flu vaccination after Urolithin A", "conditions": "elderly 65-90 yrs, four weeks intervention before vaccination; placebo anticipated 15-30%"}
{"smiles": "O=c1oc2cc(O)ccc2c2ccc(O)cc12", "note": "[Urolithin A]", "values": [{"measurement": "anticipated seroconversion post flu vaccination", "value": "40-60%"}]}
